# Measurements reported in paper PMC4336329 (PLoS ONE, 2015).
# Screen size: about 310,000 compounds; about 14,000 (4.5%) showed an effect of 50% or more. Effects have a minus sign here. This is one part of the list.
# Molecular target: human ether-à-go-go-related gene (hERG) potassium channel (human, UniProt Q12809)
# Assay: primary screen, population patch clamp on CHO cells stably expressing hERG
# 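Further: peak tail current of the secondary pulse compared with the same well before compound.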
# Chain of human ether-à-go-go-related gene (hERG) potassium channel (Q12809 whole entry, looked up): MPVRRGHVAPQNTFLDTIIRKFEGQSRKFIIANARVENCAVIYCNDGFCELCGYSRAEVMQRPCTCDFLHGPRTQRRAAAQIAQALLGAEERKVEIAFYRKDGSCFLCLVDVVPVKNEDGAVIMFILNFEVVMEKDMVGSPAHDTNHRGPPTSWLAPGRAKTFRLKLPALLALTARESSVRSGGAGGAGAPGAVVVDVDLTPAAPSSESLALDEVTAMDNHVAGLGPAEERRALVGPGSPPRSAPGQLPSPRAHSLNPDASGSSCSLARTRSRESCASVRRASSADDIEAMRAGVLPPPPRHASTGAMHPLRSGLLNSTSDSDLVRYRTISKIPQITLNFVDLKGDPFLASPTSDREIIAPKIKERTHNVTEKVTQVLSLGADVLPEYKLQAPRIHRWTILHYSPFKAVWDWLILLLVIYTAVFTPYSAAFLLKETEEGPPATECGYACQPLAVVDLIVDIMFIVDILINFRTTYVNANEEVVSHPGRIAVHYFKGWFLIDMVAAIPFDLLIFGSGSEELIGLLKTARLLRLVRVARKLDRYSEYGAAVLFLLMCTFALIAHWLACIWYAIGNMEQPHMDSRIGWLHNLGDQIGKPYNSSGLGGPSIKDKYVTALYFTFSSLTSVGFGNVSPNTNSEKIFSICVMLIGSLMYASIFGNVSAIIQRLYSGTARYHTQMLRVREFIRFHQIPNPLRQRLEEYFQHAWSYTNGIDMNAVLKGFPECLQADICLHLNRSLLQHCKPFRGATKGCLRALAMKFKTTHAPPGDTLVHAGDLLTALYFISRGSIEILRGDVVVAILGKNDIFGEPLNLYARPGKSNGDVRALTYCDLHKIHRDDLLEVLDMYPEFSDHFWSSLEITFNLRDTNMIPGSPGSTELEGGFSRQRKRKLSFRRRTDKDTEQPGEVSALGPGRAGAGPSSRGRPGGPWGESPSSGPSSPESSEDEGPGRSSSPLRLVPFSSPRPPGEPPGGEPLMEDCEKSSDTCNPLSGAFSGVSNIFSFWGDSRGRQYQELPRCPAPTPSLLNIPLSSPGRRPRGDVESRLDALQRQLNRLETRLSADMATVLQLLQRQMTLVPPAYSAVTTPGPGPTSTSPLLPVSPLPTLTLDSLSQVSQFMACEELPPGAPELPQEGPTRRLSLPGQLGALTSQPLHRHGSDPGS
row,Compound,"hERG current change (%, negative = inhibition) at 10uM [%]"
1,CCC1=C2CC[C@H]3C(=O)N(c4ccccc4)C(=O)[C@H]3[C@H]2[C@@]2(C)C(=NCC3CC3)OC(=O)N2C1=O,7.45
2,O=C(CNC(=O)c1ccccc1F)NCCOc1cccc(Cl)c1Cl,-13.1
3,COc1cc(/C=N/NC(N)=S)ccc1OCC(=O)N1CCOCC1,5.47
4,CCC(=O)N1CCc2cc(S(=O)(=O)CCC(=O)NCCC3=CCCCC3)ccc21,-4.4
5,O=C(Cn1ccc([N+](=O)[O-])n1)NCc1cccnc1,16.9
6,O=C(O)c1cccnc1SC1CC(=O)N(c2ccc(OC(F)F)cc2)C1=O (centres unmarked),-4.25
7,CNC(=S)N/N=C(\C)c1cccc(C(F)(F)F)c1,-7.29
8,O=C1NC(=O)C2(Cc3ccccc3N3CCCC32)C(=O)N1c1ccc(Cl)cc1 (centres unmarked),-30.2
9,COc1ccccc1/C=C/CN1CCNC(=O)C1CC(=O)NCCc1cnccn1 (centres unmarked),20
10,CCOC(=O)c1cnc2nc(NCc3ccc(OCc4ccccc4)cc3)[nH]n2c1=O,5.06
11,CCCNC(=O)N(C)c1nncnc1C(=O)NC,0.627
12,Cn1c(=O)n(/N=C/c2ccccc2)c2ccccc21,2.26
13,CC(C)(C)c1cccc(OCCCSc2ncccn2)c1,-19.6
14,CCc1ccccc1NC(=O)NCc1ccccn1,8.47
15,CCCOc1ccc(N2C(=O)CC(N(CCc3ccccc3)C(=O)c3ccccc3)C2=O)cc1 (centres unmarked),10.8
16,COC(=O)c1ccccc1NC(=O)Nc1ccc(Br)cn1.Cl,27
17,N#CC1=C(N)OC2=C(C(=O)CCC2)C12C(=O)N1CCCc3cccc2c31 (centres unmarked),13.8
18,CCCOc1ccc(/C=N/NC(=O)c2ccc3c(c2)OCO3)c(OCCC)c1,-17.4
19,COc1ccc(COC(=O)CCc2c[nH]c3ccccc23)cc1F,15.8

row,Compound,"hERG current change (%, negative = inhibition) at 10uM [%]"
1,Cc1ccccc1C(=O)N1CCC(C(=O)N2CCN(c3ncccn3)CC2)CC1,7.94
2,O=S(=O)(c1ccccc1)c1nc(-c2ccccc2Cl)oc1NCCN1CCOCC1,-12.6
3,O=C1CCN(CCc2ccccc2)CCN1CCO,-4.16
4,Cc1ccc2c(c1)c(=O)c1c3n2CCN(CC#N)C3CC1 (centres unmarked),12
5,Cc1ccc(S(=O)(=O)N2CCOCC2)cc1C(=O)N1CCN(S(=O)(=O)c2cccc(F)c2)CC1,-6.79
6,CCCN1C2CCCC1CC(NC(=O)c1cccc([N+](=O)[O-])c1)C2 (centres unmarked),-36.8
7,COc1ccc(C(=O)NCCN2CCOCC2)c(OC)c1,25.7
8,COc1cccc(C(=O)NCCS(=O)(=O)N2CCCC2)c1,-11.1
9,COc1cc(C2c3[nH]c4ccccc4c3CCN2Cc2cn(C)nc2C)ccc1F (centres unmarked),1.02
10,C/C(=N\NC(=S)Nc1cccc(C)c1)c1ccccc1,4
11,Cc1ccc(C)c(NS(=O)(=O)c2cc(C(=O)NCc3ccco3)ccc2C)c1,-52.3
12,COCc1cc(=O)n2[nH]c(SCc3ccccc3)nc2n1,0.677
13,Cc1cccc(C(=O)NCCc2nnc(SCC(=O)Nc3cccc(C(=O)O)c3)n2C)c1,18.5
14,COC(=O)c1ccccc1N=Nc1c(C)[nH][nH]c1=O,-9.31
15,O=c1cc(NCc2ccco2)[nH]c(=O)n1-c1ccc(Br)cc1,1.29
16,C=C(C)C1CC=C(C)/C(=N/NC(=O)c2ccc(NC(=O)CCC)cc2)C1 (centres unmarked),-7.54
17,O=C(CN1CCc2ccccc2C1)Nc1ccc(Br)cc1,-34.2
18,Cc1ccc2c(c1)N(C(=O)NC1CCCCC1)C(C)(C)CC2C (centres unmarked),-14
19,Cc1ccc(Cn2c(C3CCCN3c3nc(-c4cc(Cl)c(N)c(Cl)c4)cs3)nc3cc(C(=O)NCCCO)ccc32)cc1 (centres unmarked),12.2

row,Compound,"hERG current change (%, negative = inhibition) at 10uM [%]"
1,O=C(CSc1nnc(NC2CCCCC2)s1)Nc1ccc2c(c1)C(=O)c1ccccc1C2=O,9.89
2,O=C(NC1CCCC1)C(c1ccccc1)N(Cc1ccco1)C(=O)Cc1cccs1 (centres unmarked),-7.87
3,CCOc1c(Br)cc(CNc2ncn[nH]2)cc1OC,2.2
4,CCCc1cc(NCCCN2CCOCC2)n2c(nc3ccccc32)c1C#N,-75.7
5,CC1(C)C(=O)NCCN1C(=O)CCCC(=O)O,8.77
6,O=C(CSc1nnnn1-c1ccccc1)Nc1ccc(Cl)cc1,-21.2
7,C=CCn1c(O)c(C(CC)=NC2CC2)c(=O)[nH]c1=O,-12
8,Cc1ccc(NC(=O)c2nnn(-c3ccc4c(c3)OCCO4)c2N)cc1,9.9
9,CCCCc1nc2ccccc2c(=O)n1-c1ccccc1[N+](=O)[O-],-8.32
10,Cc1cc(C)c(Cn2c3ccccc3c3cnn(CC(=O)NCCN4CCOCC4)c(=O)c32)c(C)c1,2.31
11,COc1ccc2c(c1OC)C(=O)OC2CC(=O)c1ccc(O)cc1 (centres unmarked),-3.43
12,CCOC(=O)c1c(NC(=O)CSc2n[nH]c(-c3ccco3)n2)sc(C)c1C,11.8
13,CC(=O)c1ccc(NC(=O)CCc2c(C)nn(-c3ccc(N4CCOCC4)nn3)c2C)cc1,-8.54
14,O=C(O)CCCc1nc(-c2ccc(Cl)cc2)no1,2.35
15,Cc1ccsc1C1C(C#N)=C(N)OC2=C1C(=O)CC(C)(C)C2 (centres unmarked),-6.69
16,CC(=O)[C@H]1[C@H](C#N)C[C@H]2[C@@H]3CC=C4C[C@@H](O)CC[C@]4(C)[C@H]3CC[C@@]21C,19
17,COC(=O)c1ccc(C(=O)OC)c(NC(=O)c2cccnc2)c1,8.65
18,Cc1c2cn[nH]c(=O)c2c(C)n1Cc1ccc(F)cc1,-5.17
